25 molecules from ChEMBL document CHEMBL1157539, “Thousands of chemical starting points for antimalarial lead identification” (Nature, 2010) can be followed below.

Over roughly 13,000 compounds, “IFI” has its median near 4; the highest 2% begin near 17. The list shows a part of the results.

This experiment can be described thus: GSK_TCMDC: Inhibition Frequency Index (IFI). The number of non-kinase HTS assays where a compound showed > 50 % inhibition, expressed as a percentage of the number of such assays in which the compound was tested (-0 is zero). It is filed as functional.
Take `O=S(=O)(/C=C/c1ccccc1)N(Cc1ccc(-c2ccc(CNCCc3ccccc3)cc2)cc1)CC1CCCCN1` (stereo not given): the IFI amounted to 11.7%.
For the molecule `Cc1ccccc1CNc1noc(-c2sccc2Br)n1`, the IFI stood at 7.46%.
As for `COc1ccc(-c2csc3nc(C)nc(Cl)c23)cc1OC`, the IFI came to 2.59%.
Consider `CO/C(=C\C=C\c1cc2cc(Cl)ccc2[nH]1)C(=O)NCCCN1CCN(c2cc(Cl)ccc2OC)CC1`, for which the IFI is 10.9%.
With `CC[C@H](C)CNC(=O)c1ccnc(-c2cccc(CN(C)C3CCN(C)CC3)c2)c1` the figure was -0%; with `O=C(Nc1cccc(C(F)(F)F)c1)NC1CCN(c2ccnc3ccccc23)CC1`, 3.03%; with `O=C(Nc1ccc(-c2cccc(-c3nc4cc(C(F)(F)F)ccc4[nH]3)c2)cc1)c1ccoc1`, 7.08%.
With `O=C(Cc1n[nH]c(=O)c2ccccc12)Nc1cccc(C(=O)Nc2cccc(C(F)(F)F)c2)c1` the figure was 1.41%.
As to `Cc1[nH]c2c(C)cccc2c1C1CCN(CCC2CCN(C(=O)/C=C/c3ccc(Cl)c(Cl)c3)CC2)CC1`, the IFI is 7.14%.
With `Cc1nc(-c2nc(N3CCC(O)CC3)ncc2-c2ccsc2)sc1C` the figure was 3.45%; with `CC(Nc1ccc2c(c1)OCCO2)C(=O)Nc1cc(C(F)(F)F)ccc1N1CCOCC1` (stereo not given), 6.25%.
Consider `CNCC(C)(C)c1nc(-c2ccc(Cl)c(O)c2)c(-c2ccncc2)[nH]1`, for which the IFI is 2.17%.
`CN1CCN(c2cc(NC(=O)c3ccc(-c4ccc(C#N)cc4)cc3)ccc2Cl)CC1` returned an IFI of 3.74%.
With `N=C(N)NN=Cc1cc([N+](=O)[O-])ccc1Sc1ccccc1CO` the figure was 3.76%; with `CCOc1ccc(-c2nonc2NC(=O)c2ccccc2)cc1OCC`, 0%; with `COc1cc(CCNc2nc(NCc3cccc4ccccc34)nc(N3CCC(N)CC3)n2)ccc1O`, 6.06%.
With `C=CC[C@H](NC(=O)c1ccc(NS(=O)(=O)c2ccc3nc(N)[nH]c(=O)c3c2)cc1)C(=O)OCCCC`, the IFI was determined as 2.86%.
`Cc1ccc(Nc2nc3cc(Nc4ccnc(Nc5ccc(CS(C)(=O)=O)cc5)n4)ccc3o2)cc1` gave an IFI of 8.89%.
`Cc1cccc2nc(-c3ccc(-c4cccc(CNCCNC(=O)c5ccnn5C)c4)cc3)[nH]c12` had an IFI of 3.96%.
On to `O=C(NCC1CC1)C1CCN(C(c2ccccc2)c2nc3ccccc3s2)CC1` (stereo not given), for which the IFI was 0.68%.
In turn, `CCOc1ccc2c(c1)C(C)(c1ccc3c(c1)C(C)CC(C)(C)N3)CC(C)(C)N2` (stereo not given) showed an IFI of 5.8%.
Molecule `CCCCNCc1ccc(-c2nc(CN(CCCn3ccnc3)C(=O)Nc3ccc(CC)cc3)cs2)cc1` gave an IFI of 6.71%.
Consider `Cc1nn(-c2ccccc2)nc1C(=O)N(Cc1ccc(-c2ccc(CNCCc3ccc(S(C)(=O)=O)cc3)cn2)cc1)C(C)CN(C)C` (stereo not given), for which the IFI came out at 6.99%.
The molecule `COc1ccc(Nc2ccnc3cc(Cl)ccc23)cc1OC` had an IFI of 8.33%.
In the case of `COc1ccc(C)cc1NC(=O)CSc1nc2cccnc2n1C1CCCCC1`, the IFI came to 2.13%.
